Data: PubChem BioAssay AID588795 (National Center for Advancing Translational Sciences (NCATS), 2011)
Hit rate of the full screen: of about 390,000 compounds, about 1,400 (0.36%) were called active. This list was built around the results that the source calls inconclusive (neither active nor inactive); the mix of calls is not that of the screen. Calls follow the shape of the dose curve; as a rule, active = well fitted inhibition curve with a large enough effect; inconclusive = small, poorly fitted or top-dose-only effect; inactive = no such curve, though single readings can be large or run the other way. A potency beside an inconclusive call is a rough fit, not a confirmed value.

These compounds were tested against Flap endonuclease 1 (Homo sapiens) (UniProt P39748) (assay: qHTS Assay for the Inhibitors of Human Flap endonuclease 1 (FEN1).). Settings: Recombinant FEN1 flap cleavage, fluorescence, 15 min; series mostly up to 114 µM; activity change, negative = inhibition: at the top concentration.
Outline: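 Enzyme 10 nM, 15 min RT preincubation with compound; start with substrate 50 nM final; reads at 0 and 15 min; qHTS titration, four-parameter Hill fit.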
% is scaled to controls: 0 for no effect and ±100 for the full control effect; potency is read from the fitted curve at half-maximal effect; tags tell the direction and shape of the fitted curve.
Also: nearly all actives have a fitted effect of over 65% in size.

Chain of UniProt P39748 (P39748 whole entry, looked up): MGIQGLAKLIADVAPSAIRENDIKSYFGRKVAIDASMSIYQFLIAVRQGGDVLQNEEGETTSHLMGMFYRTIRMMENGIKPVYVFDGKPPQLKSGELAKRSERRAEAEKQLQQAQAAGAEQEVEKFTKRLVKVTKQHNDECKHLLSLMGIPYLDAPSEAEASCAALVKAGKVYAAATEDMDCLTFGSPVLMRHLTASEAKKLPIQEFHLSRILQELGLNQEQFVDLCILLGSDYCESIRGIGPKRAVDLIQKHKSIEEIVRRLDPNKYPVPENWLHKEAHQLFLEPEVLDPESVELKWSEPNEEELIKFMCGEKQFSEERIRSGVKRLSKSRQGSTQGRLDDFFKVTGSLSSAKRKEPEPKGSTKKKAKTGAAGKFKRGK

Row | SMILES | Potency | activity change, negative = inhibition
1 | O=C1c2cccc3c(O)ccc(c23)C(=O)N1Cc1ccco1 | inconclusive: 50.1 µM [inhibitor, partial curve, poor fit] | –
2 | CCN(CC)CCNC(=O)c1cc2c(=O)n(C)c3ccccc3c2s1 | active: 50.1 µM | –
3 | N#CC1=C(N)C2=C(N3CCCCC3)CCCC2C1(C#N)C#N (configuration not stated) | inconclusive: 79.4 µM [inhibitor, partial curve] | –
4 | C=CCNC(=O)c1ccc2c3n(nc2c1)-c1ccc(Cl)cc1CO3 | inconclusive: 79.4 µM [inhibitor, partial curve, poor fit] | –
5 | Cc1cccc(NC(=O)CN2C(=O)N/C(=C\c3cccn3-c3cccc(C(=O)O)c3)C2=O)c1 | inconclusive: 50.1 µM [inhibitor, partial curve] | –
6 | Cn1cccc1-c1cc2n(n1)CCC(=O)N2CCCC(=O)NCc1cccc(Cl)c1 | – | inactive: -4.34%
7 | CCN(CC)C(=O)CSc1nnc2c3ccccc3n(C)c2n1 | inconclusive: 89.1 µM [inhibitor, single point] | –
8 | Cc1cccc(-c2nc(Nc3ccc(O)cc3)c3ccccc3n2)c1 | inconclusive: 50.1 µM [inhibitor, partial curve, poor fit] | –
9 | CCn1c(SCC(=O)Nc2ccccc2N2CCCCC2)nc2c1c(=O)n(C)c(=O)n2C | inconclusive: 15.8 µM [inhibitor, full curve] | –
10 | O=[N+]([O-])c1ccc(/C=N/Nc2nc(N3CCCCC3)nc(N3CCCCC3)n2)o1 | inconclusive: 50.1 µM [inhibitor, partial curve] | –
11 | O=C(O)c1ccc(Cl)c(NC(=S)NC(=O)c2cccc(COc3ccccc3)c2)c1 | – | inactive: -24.7%
12 | CSc1nc2ccc(NS(=O)(=O)c3cccc(Cl)c3Cl)cc2s1 | inconclusive: 79.4 µM [inhibitor, partial curve, poor fit] | –
13 | Cc1ccc(C)c(NC(=O)c2nc(S(=O)(=O)Cc3ccc(F)cc3)ncc2Cl)c1 | – | inactive: -6.65%
14 | O=C(COC(=O)c1ccc([N+](=O)[O-])o1)Nc1ccc(Br)cc1F | inconclusive: 35.5 µM [inhibitor, single point] | –
15 | N#C/C(=C\c1ccc(N2CCOCC2)o1)c1nc2ccccc2[nH]1 | inconclusive: 50.1 µM [inhibitor, partial curve] | –
16 | CCN(CC)c1ccc(S(=O)(=O)N2CCOCC2)cc1NC(=O)CNCc1cccc(Cl)c1 | inconclusive: 79.4 µM [inhibitor, partial curve, poor fit] | –
17 | COc1ccc(NC(=O)/C(C#N)=C\c2ccc(OCc3ccc(C(=O)O)cc3)c(OC)c2)cc1 | inconclusive: 35.5 µM [inhibitor, partial curve] | –
18 | N#CC(c1cccc(C(F)(F)F)c1)(c1ncc(C(F)(F)F)cc1Cl)N1CCOCC1 (configuration not stated) | inconclusive: 89.1 µM [inhibitor, partial curve, poor fit] | –
19 | Cc1cc(C(=O)N/N=C/c2cc(Cl)cc([N+](=O)[O-])c2O)n[nH]1 | – | inactive: -1.49%
20 | Cc1sc2ccccc2[n+]1CCCCI | inconclusive: 39.8 µM [inhibitor, partial curve] | –
21 | CCOC(=O)c1cc(-c2ccc(F)cc2)n(CCC(=O)NC2CCC(C)CC2)c1C (configuration not stated) | – | inactive: -10.5%

Row | SMILES | Potency | activity change, negative = inhibition
22 | O=C(NNc1c2ccccc2nc2ccccc12)c1cc2ccccc2cc1O | active: 50.1 µM | –
23 | CC(=O)c1ccc(N=Nc2ccc(C)cc2)cc1 | – | inactive: 13%
24 | N#C/C(=C\c1ccc(C(=O)O)cc1)c1nc2sc3c(c2c(=O)[nH]1)CCCC3 | inconclusive: 79.4 µM [inhibitor, partial curve] | –
25 | CCOC(=O)c1c(S(=O)(=O)NCC(=O)N(C)c2ccc(C)cc2)c(C)n(C)c1C | – | inactive: 13.1%
26 | Cc1nc2ccccn2c1C(=O)N/N=C/c1ccc(CNC(=O)C(=O)Nc2ccccc2)o1 | – | inactive: -6.48%
27 | CCN1CCN(Cc2ccc(NC(=O)c3cc(NC(=O)c4cnn(-c5ccccc5)c4N)cc(OC)c3)cc2C(F)(F)F)CC1 | inconclusive: 79.4 µM [inhibitor, partial curve, poor fit] | –
28 | O=C(CSc1nnc2scc(-c3ccccc3)n12)Nc1nsc(-c2ccccc2)n1 | inconclusive: 44.7 µM [inhibitor, partial curve, poor fit] | –
29 | CCOc1ccc(NC(=O)C(CC(=O)O)Cc2ccc(Br)cc2)cc1 (configuration not stated) | – | inactive: 2.8%
30 | COc1cc(/C=N/NC(N)=O)ccc1OCC(=O)Nc1ccc(C)c(C)c1 | inconclusive: 56.2 µM [inhibitor, partial curve, poor fit] | –
31 | Cc1ccc(NC(=O)CN2C(=O)S/C(=C\c3ccc(-c4cccc(C(=O)O)c4C)o3)C2=O)cc1C | active: 50.1 µM | –
32 | Cc1ccc(CSc2oc(-c3cccs3)nc2S(=O)(=O)c2ccc(C)cc2)cc1 | inconclusive: 89.1 µM [inhibitor, single point] | –
33 | COc1cc(NC(=O)CC(c2cccs2)N2Cc3ccccc3C2=O)cc(OC)c1OC (configuration not stated) | – | inactive: -11.3%
34 | C=C1CN(Cc2ccccc2)S(=O)(=O)c2ccccc21 | inconclusive: 89.1 µM [inhibitor, partial curve, poor fit] | –
35 | COc1ccc(NCc2ccc([N+](=O)[O-])s2)c(OC)c1 | inconclusive: 79.4 µM [inhibitor, partial curve] | –
36 | COc1ccc(C=C2C(=O)c3ccccc3C2=O)cc1O | inconclusive: 44.7 µM [inhibitor, partial curve] | –
37 | CCN1CCN(c2cc(C)c3cc(NC(=O)c4cc(Cl)ccc4OC)ccc3n2)CC1 | inconclusive: 31.6 µM [inhibitor, full curve] | –
38 | COc1ccc(Cl)cc1S(=O)(=O)N(C)CC(=O)N1CCOCC1 | – | inactive: 11.8%
39 | CC(=O)c1ccc(NC(=O)Cn2c(=O)n(Cc3ccco3)c(=O)c3sc4ccccc4c32)cc1 | – | inactive: 22.3%
40 | Cc1ccc(S(=O)(=O)NN2C(=O)/C(=C/c3ccc(C(=O)O)cc3)SC2=S)cc1 | active: 50.1 µM | –
41 | O=C(Nc1ccn(Cc2ccccc2)n1)c1cccc(Cn2cc([N+](=O)[O-])cn2)c1 | inconclusive: 89.1 µM [inhibitor, partial curve, poor fit] | –
42 | CC(=O)C1=C(O)C(=O)N(Cc2cccnc2)C1c1ccc(O)cc1 (configuration not stated) | inconclusive: 15.8 µM [inhibitor, partial curve, poor fit] | –
